Source: the supplement of paper PMC3724861
The list shows a part of the results.

test system: T1, Caupolican (Caup) homeodomain DNA-binding domain; assay: PBM E-score (8-mer, recovered from the published 9-mer minima) (E-score (dimensionless, -0.5 to 0.5)); Drosophila protein; higher = stronger relative binding preference, active = 0.31 or more
T1 sequence: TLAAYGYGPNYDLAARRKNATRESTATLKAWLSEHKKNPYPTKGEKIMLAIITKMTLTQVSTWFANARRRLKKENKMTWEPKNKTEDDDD
Summary of the method: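 Caup's homeodomain DNA-binding domain (residues 214-303) was made by in vitro transcription and translation and applied at 100 nM to custom-designed protein binding microarrays. Each value is an enrichment score that gives relative binding preference for a short DNA word, with higher meaning stronger. The 8-mer values were recovered from published 9-mer scores, each of which was the minimum of its two constituent 8-mer scores. A cutoff of 0.31 marks candidate sites.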

| Sequence | PBM E-score |
| --- | --- |
| ATTTCCAG | inactive: 0.0334 |
| CCCTTAAA | inactive: -0.0545 |
| AACCGGCA | inactive: -0.0519 |
| CCATGCAG | inactive: -0.0673 |
| ATCGCGGC | inactive: -0.165 |
| CACTCAAG | inactive: 0.0399 |
| AGGGCAAC | inactive: -0.0847 |
| ACATTTCT | inactive: 0.17 |
| GCGCCTCA | inactive: -0.22 |
| CGAACGCA | ≥ 0.0319 |
| ATTGCTTC | inactive: 0.0988 |
| AAAATAAG | inactive: 0.027 |
| CCTCCATC | inactive: -0.178 |
| CAGGTTGA | inactive: 0.0252 |
| CACATAGG | inactive: 0.0608 |
| AAAACAAC | inactive: 0.214 |
| CCGTCCAA | inactive: -0.0826 |
| ACCAACAC | inactive: 0.175 |
| CGAGTACA | inactive: 0.205 |
| AGGATCGC | inactive: -0.00783 |
| GCAGGCAC | inactive: -0.173 |

| Sequence | PBM E-score |
| --- | --- |
| ACGACCGT | inactive: -0.0851 |
| ACAGGGGT | inactive: 0.0957 |
| AGCAGCAA | inactive: 0.0254 |
| AGCGTTTG | inactive: -0.163 |
| GGGCGGGA | ≥ -0.151 |
| CGGAGTGC | inactive: -0.159 |
| ACTCTTTG | inactive: 0.0309 |
| TCGGGCCA | inactive: -0.247 |
| AACTCACA | inactive: 0.0792 |
| CCAACCAC | inactive: 0.0693 |
| CTAAGAAA | inactive: 0.0699 |
| AGCTGCAC | inactive: -0.0853 |
| GACTCCAC | inactive: -0.126 |
| ACTACCCT | inactive: 0.0145 |
| ACCCTTAA | inactive: -0.0465 |
| CCTCTGTC | inactive: -0.0145 |
| CACGTAAA | inactive: 0.0877 |
| GACGTCAC | inactive: 0.0133 |
| AAAAGGAT | ≥ 0.105 |
| ACCATAAC | inactive: 0.0778 |
| AGAAACAC | inactive: 0.188 |

| Sequence | PBM E-score |
| --- | --- |
| CCCGCTAC | inactive: -0.0664 |
| ACTTACAT | active: 0.339 |
| AGGACCAA | inactive: -0.108 |
| CATAAAAG | inactive: 0.137 |
| CCACCTAC | inactive: -0.0168 |
| AACTCCAA | ≥ 0.0284 |
| CAACAAGA | inactive: 0.241 |
| AGGAGTAG | inactive: -0.0444 |
| ACATCGAA | inactive: 0.233 |
| AGATAGGA | inactive: -0.0128 |
| CGTTTCTC | inactive: -0.0945 |
| GCTGTCCC | inactive: -0.0796 |
| CGCCCCAA | inactive: -0.164 |
| GAGTTCCA | inactive: -0.0386 |
| AGCGTGCC | inactive: -0.158 |
| CTCAGTAC | inactive: 0.0603 |
| ACTGGCTA | inactive: -0.0492 |
| CACAATTA | inactive: 0.104 |
| ACACGGAC | inactive: 0.258 |
| GACCTTCC | inactive: -0.168 |
